Test results published in the supplement of paper PMC3334620.
In all, about 33,000 sequences were measured (“E-score (-0.5 to 0.5)”: median about -0.012, highest 2% from about 0.27 on). This is one part of the list.

target: T1, Vhr1 (UniProt P40522); experiment: PBM E-score (8-mer binding enrichment) (E-score (-0.5 to 0.5)); higher = stronger / more preferred TF binding; most listed sequences are background and not binding sites; details: protein concentration: 200 nM; construct: GST-full length
T1 sequence: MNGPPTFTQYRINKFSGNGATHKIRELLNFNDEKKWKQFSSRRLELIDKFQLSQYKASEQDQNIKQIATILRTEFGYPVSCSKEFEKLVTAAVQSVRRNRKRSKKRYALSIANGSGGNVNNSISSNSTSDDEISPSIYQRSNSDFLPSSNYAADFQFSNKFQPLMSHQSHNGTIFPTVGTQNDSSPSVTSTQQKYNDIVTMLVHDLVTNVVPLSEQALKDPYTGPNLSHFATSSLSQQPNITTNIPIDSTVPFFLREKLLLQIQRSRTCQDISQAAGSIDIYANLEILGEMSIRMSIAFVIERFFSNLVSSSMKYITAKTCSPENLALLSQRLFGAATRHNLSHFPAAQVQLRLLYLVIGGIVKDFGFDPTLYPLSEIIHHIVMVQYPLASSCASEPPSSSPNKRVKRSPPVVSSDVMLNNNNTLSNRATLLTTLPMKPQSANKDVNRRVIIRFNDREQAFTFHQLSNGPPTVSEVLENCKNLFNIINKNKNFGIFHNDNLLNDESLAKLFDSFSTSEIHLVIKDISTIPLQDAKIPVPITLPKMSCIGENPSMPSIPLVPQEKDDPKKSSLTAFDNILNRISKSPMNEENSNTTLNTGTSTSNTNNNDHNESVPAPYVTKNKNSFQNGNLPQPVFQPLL
Protocol: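 Universal 'all 10-mer' protein binding microarrays (Agilent AMADID 015681) probed with GST-tagged S. cerevisiae TFs (full-length or DBD) made by in vitro transcription/translation (PURExpress), about 100-200 nM. Bound TF was detected with fluorescent anti-GST. Each ungapped 8-mer (which stands for itself and its reverse complement) is scored by the PBM enrichment score (E-score), a modified Wilcoxon-Mann-Whitney statistic from -0.5 to +0.5, computed with the Universal PBM Analysis Suite. Scale: above 0.35 generally sequence-specific binding.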

Sequence	PBM E-score
CCTTCATA	-0.0115
GCCCCGCC	0.242
ACTAACGA	0.146
CGTCGTGA	-0.118
CAAGAAGC	-0.0878
AGGCCTCA	-0.303
AGTAAACA	0.00934
GTCGTCTA	-0.0586
TCCCTCGA	0.0201
CGAACGCG	0.075
GCAACTAA	0.0737
CGTTTCGC	-0.0307
CAGCATGG	0.115
AGGCAGGG	0.0138
AGGAGAGG	-0.163
CAGCGAGC	0.135
ATAGGAAT	-0.0918
GAAATACC	-0.0176
GAAGCCCC	-0.201
GAACGCTC	-0.141
AGCCCGCC	0.186
AGCAATCA	0.122
ACGCACCC	-0.0712
CTCTGTAC	-0.0401
ATCAGAAT	0.105

Sequence	PBM E-score
CTACGTTC	-0.199
CTTCATGA	0.145
ATATGACC	0.106
CCTGAGTC	0.461
GAGAACGC	0.0381
ATGTGCCC	0.0949
AGGAGCAG	-0.303
CATTACTC	0.22
GTAATGAA	-0.104
AAACCATT	-0.0648
CCGCATAG	0.0726
GCTTAAAC	-0.18
CTCGCCAA	-0.164
ACCATGTA	0.261
ATTTGGTG	-0.068
ATTCCGTA	0.0633
ATCACCGG	0.0794
CTTTGCTA	-0.0197
GCGTTTAC	-0.163
CGCCGTAA	-0.108
AAGTCCCT	-0.214
TCCCCTCA	0.245
GGAGAAGA	-0.18
CCCCCTCC	-0.0898
GTGAGGCA	0.00166

Sequence	PBM E-score
CTAAGGAA	-0.266
ACACATGG	0.215
AAACTCGA	0.1
CTGCTCGA	-0.00983
ACCATATG	0.1
TAGCCCCA	0.0719
CAGAAGAC	-0.0431
CGCGTGCC	0.0556
AGGTCCAG	0.0702
ATAAGCCA	-0.0824
ACAGGTGG	0.00194
CGCCCACA	0.193
AGCGTTCG	0.138
ATAGGGCG	-0.0674
AGAGCTGC	-0.194
AGTATAGC	-0.174
GATAATCC	-0.112
AAGGTAGC	-0.205
CCTGCACG	0.0318
ATGCTACA	-0.11
CTATTGAC	0.0597
CGTAAGAA	-0.34
ACAGTTAC	-0.0245
AACCACGC	0.0111
CTATGGTA	0.0793

Sequence	PBM E-score
ACAATATC	0.0645
CGGTCGGA	0.00853
GCTCACGA	-0.045
GATTGTCC	-0.0817
CCGCCGGA	-0.0234
AACCAAGC	0.0559
ATGCGTGA	0.193
ATGCTGTC	-0.123
TAAAGGAA	-0.25
CGTAGACC	-0.297
CGCGTACA	-0.018
AGTGCGTC	-0.18
GACCATAA	0.0846
ACAATTCC	0.0579
ACAACGAA	0.037
CGCCGAAG	-0.0818
ACCACTGG	-0.0115
GCCCAGGC	-0.107
ACTGCAAT	0.198
ACTCGCGA	0.227
GACGCGCC	-0.112
AGCAGCAG	0.036
CGACCACA	0.0511
CTACGGAG	0.105
GCCAGACC	-0.115

Sequence	PBM E-score
CAAGCTAC	-0.113
AGGGCTTG	0.0179
CGGGATAG	0.0531
AGCTGGAG	-0.0498
ATGCGCCC	0.169
ATCGTTTA	-0.0734
CGTTGGGA	0.0104
TGAATAAA	0.0352
GACAGTAA	0.127
ATGAAGGG	-0.0895
CTATCGTA	0.0393
CAATTTTC	-0.0832
AGATCCTC	-0.103
ACCATGAG	0.0389
CAATGAAC	0.0372
ACACCACG	0.0515
ATTATGGC	0.0532
CAAAATGA	-0.029
GTGGTATA	0.0698
AACATAAT	0.24
CCTTATCC	-0.101
CCCCCTGA	-0.153
ACGAGCAA	-0.0519
AGGGGGCA	-0.151
CGATCCCA	-0.0258

Sequence	PBM E-score
AAGAAACT	-0.0916
ATCTGTTA	-0.0428
AATACGCG	0.0497
CCCCTATA	0.0591
TATCATCA	0.147
ACTCGATA	0.169
CATCGAAA	-0.00635
AATGTCGG	-0.00533
AGAGCGCG	0.00097
ATCTCAAC	0.111
ACAGGGTG	-0.155
CCCTATTA	0.00823
CAGGCCAA	-0.0839
ATATTGGG	-0.038
CCAAAGCG	-0.206
CATGTCAA	-0.203
AGTTAACT	-0.184
GAATCAGC	0.307
AATGACCC	0.0322
CTACGTCA	-0.00453
CACGTTAG	-0.0287
CACCAATC	0.165
ACGAGTCT	0.0718
CTGGCAGA	0.0235
CCGTGTCG	-0.113

Sequence	PBM E-score
ACAGAGCC	0.0426
GTCAACTA	0.0901
ACAGCGGT	-0.075
GGCGTTAA	-0.183
ATCACGGA	0.0904
CTGTGCCC	-0.0743
AGTGTTCA	0.0309
GAGGAGAC	-0.0319
ACCCGTCC	0.00693
TCCTAGAA	-0.237
ATAGGGCC	-0.28
TCCGGGCA	-0.025
CCGAGTTC	0.00501
CCTCGATC	-0.0169
CGATACGC	0.0387
GAAACCAA	0.0781
AAGCGCGC	0.0559
ACGTGCTG	0.0599
AAACAGTA	-0.103
GCATATGA	0.19
AATGGGCG	-0.00832
AAGAGTTA	-0.00174
